We go through 24 molecules from ChEMBL document CHEMBL4888484, “Replenishing the malaria drug discovery pipeline: Screening and hit evaluation of the MMV Hit Generation Library 1 (HGL1) against asexual blood stage Plasmodium falciparum ,using a nano luciferase reporter read-out” (2022).

The campaign covered roughly 150,000 compounds. About 540 (0.36%) showed an effect of 50% or more. The list shows a part of the results.

The % Inhibition is the change of the read-out against control, counted positive when it falls.

This assay relates to Plasmodium falciparum. The experiment in a line: Primary screen in NF54 nanoGlo assay, in single point, at 2uM, 72h; a lower Z score goes with more inhibition. To be noted: timepoint 72 hour. Format: functional, Erythrocyte.
Take `COCc1ncc(C)n1CC1CCN(C(=O)C(C)C)CC1`: the “% Inhibition” value worked out at 9% and the Z score is on record as -1.24.

`CCOCCN1CCC[C@H](S(=O)(=O)NC)C1`: the “% Inhibition” value is listed as -7% and the Z score is recorded as 0.8.

Consider `CCCN(Cc1cc(=O)n(C)c(=O)n1C)C1CC(OCC)C1(C)C` (stereo not drawn), for which the “% Inhibition” value amounted to 1% and the Z score was -0.07.

On to `CC(C)CN1CCN([C@H]2CCOC3(CCN(C(=O)c4ccc5cc[nH]c5c4)CC3)C2)CC1`, for which the “% Inhibition” value is reported as -16% and the Z score was determined as 1.72.

`Cc1ccc(NC(=O)C2CC3C=CC2C3)nc1` (stereo not drawn): the “% Inhibition” value was 0% and the Z score was 0.06.

Turning to `CN1CCC[C@H](CNC(=O)c2cncc(C(=O)O)c2)[C@H]1c1ccccc1`, the “% Inhibition” value is listed as -4% and the Z score was determined as 0.64.

Consider `COc1cccc(NC(=O)C2=Cc3cc(Cl)cc(OC)c3OC=C2)c1`, for which the “% Inhibition” value is 41% and the Z score is -5.55.

For the molecule `CCOCCCC(=O)N1CCc2cc(OC)c(OC)cc2[C@@H]1C1CC1`, the “% Inhibition” value is on record as -12% and the Z score was 2.16.

Take `CC(C)(C)c1nc(CN2CCC[C@H]2c2ccsc2)no1`: the “% Inhibition” value is -4% and the Z score came to 0.52.

Turning to `O=S(=O)(NCc1nc(C2CCC(F)(F)CC2)no1)c1ccc(-n2cccn2)cc1`, the “% Inhibition” value was -16% and the Z score was determined as 1.98.

As to `Cc1cc(C)c(S(=O)(=O)NCc2nc(C(=O)O)c(C)s2)s1`, the “% Inhibition” value is reported as -16% and the Z score is listed as 1.91.

Take `COCCNC(=O)c1cn2c(n1)CC[C@H](c1cc(C(F)(F)F)cc(C(F)(F)F)c1)C2`: the “% Inhibition” value is -9% and the Z score is 1.42.

As for `O=C1CN(C(=O)CCC(F)(F)F)CCN1CCc1ccccc1`, the “% Inhibition” value is reported as -4% and the Z score worked out at 0.88.

Regarding `COc1ccccc1C(=O)NC[C@H]1Cn2ccnc2CO1`, the “% Inhibition” value is -9% and the Z score is on record as 1.35.

As to `COc1cccc(CC(=O)N[C@H]2CCN(c3cc(C)cc(C)c3)C2=O)c1`, the “% Inhibition” value is -5% and the Z score came out at 0.72.

On to `O=C(CNC(=O)C1CCCC1)N[C@H]1CCN(C(=O)COc2ccccc2)C1`, for which the “% Inhibition” value is recorded as -5% and the Z score is recorded as 0.58.

As for `CCOC(=O)N(C)CC(=O)NCC(=O)OCC1CC1`, the “% Inhibition” value worked out at 6% and the Z score is -0.7.

`CC(=O)N1CC(C(=O)NCCc2ccc(F)cc2)C1`: the “% Inhibition” value was -12% and the Z score was 1.58.

For the molecule `CCCc1nnc(N2CCc3[nH]c4ccc(C)cc4c3C2)o1`, the “% Inhibition” value is on record as -6% and the Z score is on record as 1.04.

On to `CCOC[C@H]1CCCN(S(=O)(=O)c2cnnn2C)C1`, for which the “% Inhibition” value is recorded as 3% and the Z score is on record as -0.32.

Take `Cc1cnc(C(=O)N2CCC3(CC2)c2[nH]c4ccccc4c2CCN3C)cn1`: the “% Inhibition” value is reported as -3% and the Z score was determined as 0.63.

Consider `O=C(c1ccc2c(c1)OCCO2)N1CCN(c2cnccn2)CC1`, for which the “% Inhibition” value is recorded as -10% and the Z score amounted to 0.96.

Consider `O=C(Cc1ccon1)N(Cc1ccccc1O)C[C@H]1CCCO1`, for which the “% Inhibition” value is -11% and the Z score turned out to be 1.46.

Take `CS(=O)(=O)N1CC[C@H](Oc2ccc3ccccc3n2)C1`: the “% Inhibition” value was found to be 3% and the Z score was -0.63.
